{
  "source": "the supplement of paper PMC8728848",
  "binders": {"B1": {"name": "HPA (Helix pomatia), Q575S3 (protein)", "chain": "MWAHLTGLLLICALSLSAAQRAQTGEIDCGSDSSWPKDPSDNPNRDNTREIVKHVTFSPQFCREPKVILSVTTLDAEHTKNLRYEARLKSVSPSGLSASCYSWHDGTIYRMKLSWLAVED"}},
  "assay_in_all_cases": "glycan array binding signal (z-score within array); higher = stronger binding",
  "conditions_in_all_cases": "glycan notation: IUPAC condensed, linker removed",
  "key": {"Fuc(a1-2)Gal": {"molecular_target": "Fuc(a1-2)Gal", "method_in_brief": "(§1)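 Glycan array data came from 3228 arrays in the Consortium for Functional Glycomics database, and only arrays with an available protein sequence were kept. Glycan names were put into IUPAC-condensed notation, and columns mapping to the same glycan were averaged. The binding signal is a within-array Z-score, averaged across arrays of one protein sequence run at different concentrations or buffers and across linkers. A negative Z-score can be read as non-binding.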"}, "Fuc(a1-2)Gal(b1-3)GalNAc": {"molecular_target": "Fuc(a1-2)Gal(b1-3)GalNAc", "method_in_brief": "as §1"}, "[1]": {"molecular_target": "Fuc(a1-2)Gal(b1-3)GalNAc(a1-3)[Fuc(a1-2)]Gal(b1-4)Glc", "method_in_brief": "as §1"}, "[2]": {"molecular_target": "Fuc(a1-2)Gal(b1-3)GalNAc(a1-3)[Fuc(a1-2)]Gal(b1-4)GlcNAc", "method_in_brief": "as §1"}, "[3]": {"molecular_target": "Fuc(a1-2)Gal(b1-3)GalNAc(b1-3)Gal", "method_in_brief": "as §1"}, "[4]": {"molecular_target": "Fuc(a1-2)Gal(b1-3)GalNAc(b1-3)Gal(a1-4)Gal(b1-4)Glc", "method_in_brief": "as §1"}, "[5]": {"molecular_target": "Fuc(a1-2)Gal(b1-3)GalNAc(b1-4)[Neu5Ac(a2-3)]Gal(b1-4)Glc", "method_in_brief": "as §1"}, "Fuc(a1-2)Gal(b1-3)GlcNAc": {"molecular_target": "Fuc(a1-2)Gal(b1-3)GlcNAc", "method_in_brief": "as §1"}, "[6]": {"molecular_target": "Fuc(a1-2)Gal(b1-3)GlcNAc(b1-2)Man(a1-3)[Fuc(a1-2)Gal(b1-3)GlcNAc(b1-2)Man(a1-6)]Man(b1-4)GlcNAc(b1-4)GlcNAc", "method_in_brief": "as §1"}, "[7]": {"molecular_target": "Fuc(a1-2)Gal(b1-3)GlcNAc(b1-2)Man(a1-3)[Fuc(a1-2)Gal(b1-3)GlcNAc(b1-2)Man(a1-6)]Man(b1-4)GlcNAc(b1-4)[Fuc(a1-6)]GlcNAc", "method_in_brief": "as §1"}, "[8]": {"molecular_target": "Fuc(a1-2)Gal(b1-3)GlcNAc(b1-3)Gal(b1-4)Glc", "method_in_brief": "as §1"}, "[9]": {"molecular_target": "Fuc(a1-2)Gal(b1-3)GlcNAc(b1-3)GalNAc", "method_in_brief": "as §1"}, "[10]": {"molecular_target": "Fuc(a1-2)Gal(b1-3)GlcNAc(b1-3)[Fuc(a1-2)Gal(b1-3)GlcNAc(b1-6)]GalNAc", "method_in_brief": "as §1"}, "[11]": {"molecular_target": "Fuc(a1-2)Gal(b1-3)GlcNAc(b1-3)[Fuc(a1-3)[Gal(b1-4)]GlcNAc(b1-6)]Gal(b1-4)Glc", "method_in_brief": "as §1"}, "[12]": {"molecular_target": "Fuc(a1-2)Gal(b1-3)GlcNAc(b1-3)[Gal(b1-4)GlcNAc(b1-6)]Gal(b1-4)Glc", "method_in_brief": "as §1"}, "[13]": {"molecular_target": "Fuc(a1-2)Gal(b1-3)GlcNAc(b1-3)[Gal(b1-4)[Fuc(a1-3)]GlcNAc(b1-6)]Gal(b1-4)Glc", "method_in_brief": "as §1"}, "[14]": {"molecular_target": "Fuc(a1-2)Gal(b1-3)GlcNAc(b1-3)[Neu5Ac(a2-6)Gal(b1-4)GlcNAc(b1-6)]Gal(b1-4)Glc", "method_in_brief": "as §1"}, "[15]": {"molecular_target": "Fuc(a1-2)Gal(b1-3)GlcNAc6S", "method_in_brief": "as §1"}, "[16]": {"molecular_target": "Fuc(a1-2)Gal(b1-3)[Fuc(a1-4)]GlcNAc", "method_in_brief": "as §1"}, "[17]": {"molecular_target": "Fuc(a1-2)Gal(b1-3)[Fuc(a1-4)]GlcNAc(b1-2)Man(a1-3)[Fuc(a1-2)Gal(b1-3)[Fuc(a1-4)]GlcNAc(b1-2)Man(a1-3)]Man(b1-4)GlcNAc(b1-4)GlcNAc", "method_in_brief": "as §1"}, "[18]": {"molecular_target": "Fuc(a1-2)Gal(b1-3)[Fuc(a1-4)]GlcNAc(b1-2)Man(a1-3)[Fuc(a1-2)Gal(b1-3)[Fuc(a1-4)]GlcNAc(b1-2)Man(a1-6)]Man(b1-4)GlcNAc(b1-4)GlcNAc", "method_in_brief": "as §1"}, "[19]": {"molecular_target": "Fuc(a1-2)Gal(b1-3)[Fuc(a1-4)]GlcNAc(b1-2)Man(a1-3)[Fuc(a1-2)Gal(b1-3)[Fuc(a1-4)]GlcNAc(b1-2)Man(a1-6)]Man(b1-4)GlcNAc(b1-4)[Fuc(a1-6)]GlcNAc(b1-4)[Fuc(a1-6)]GlcNAc", "method_in_brief": "as §1"}, "[20]": {"molecular_target": "Fuc(a1-2)Gal(b1-3)[Fuc(a1-4)]GlcNAc(b1-3)[Fuc(a1-3)[Gal(b1-4)]GlcNAc(b1-6)]Gal(b1-4)Glc", "method_in_brief": "as §1"}, "[21]": {"molecular_target": "Fuc(a1-2)Gal(b1-3)[Fuc(a1-4)]GlcNAc(b1-3)[Gal(b1-4)GlcNAc(b1-6)]Gal(b1-4)Glc", "method_in_brief": "as §1"}, "[22]": {"molecular_target": "Fuc(a1-2)Gal(b1-4)Fuc(a1-3)]GlcNAc(b1-2)Man(a1-3)[Fuc(a1-2)Gal(b1-4)[Fuc(a1-3)]GlcNAc(b1-2)Man(a1-6)]Man(b1-4)GlcNAc(b1-4)GlcNAc", "method_in_brief": "as §1"}, "Fuc(a1-2)Gal(b1-4)Glc": {"molecular_target": "Fuc(a1-2)Gal(b1-4)Glc", "method_in_brief": "as §1"}, "Fuc(a1-2)Gal(b1-4)Glc6S": {"molecular_target": "Fuc(a1-2)Gal(b1-4)Glc6S", "method_in_brief": "as §1"}, "Fuc(a1-2)Gal(b1-4)GlcNAc": {"molecular_target": "Fuc(a1-2)Gal(b1-4)GlcNAc", "method_in_brief": "as §1"}, "[23]": {"molecular_target": "Fuc(a1-2)Gal(b1-4)GlcNAc(b1-2)Man", "method_in_brief": "as §1"}, "[24]": {"molecular_target": "Fuc(a1-2)Gal(b1-4)GlcNAc(b1-2)Man(a1-3)[Fuc(a1-2)Gal(b1-4)GlcNAc(b1-2)Man(a1-6)]Man(b1-4)GlcNAc(b1-4)GlcNAc", "method_in_brief": "as §1"}},
  "note": "The list shows a part of the results.",
  "data": [
    {"binder": "B1", "values": [
      {"measurement": "glycan array binding signal (z-score)", "setting": "Fuc(a1-2)Gal", "result": -0.262},
      {"measurement": "glycan array binding signal (z-score)", "setting": "Fuc(a1-2)Gal(b1-3)GalNAc", "result": -0.265},
      {"measurement": "glycan array binding signal (z-score)", "setting": "[1]", "result": -0.239},
      {"measurement": "glycan array binding signal (z-score)", "setting": "[2]", "result": 0.219},
      {"measurement": "glycan array binding signal (z-score)", "setting": "[3]", "result": -0.268},
      {"measurement": "glycan array binding signal (z-score)", "setting": "[4]", "result": -0.267},
      {"measurement": "glycan array binding signal (z-score)", "setting": "[5]", "result": -0.265},
      {"measurement": "glycan array binding signal (z-score)", "setting": "Fuc(a1-2)Gal(b1-3)GlcNAc", "result": -0.264},
      {"measurement": "glycan array binding signal (z-score)", "setting": "[6]", "result": -0.236},
      {"measurement": "glycan array binding signal (z-score)", "setting": "[7]", "result": -0.242},
      {"measurement": "glycan array binding signal (z-score)", "setting": "[8]", "result": -0.266},
      {"measurement": "glycan array binding signal (z-score)", "setting": "[9]", "result": -0.248},
      {"measurement": "glycan array binding signal (z-score)", "setting": "[10]", "result": -0.243},
      {"measurement": "glycan array binding signal (z-score)", "setting": "[11]", "result": -0.248},
      {"measurement": "glycan array binding signal (z-score)", "setting": "[12]", "result": -0.243},
      {"measurement": "glycan array binding signal (z-score)", "setting": "[13]", "result": -0.315},
      {"measurement": "glycan array binding signal (z-score)", "setting": "[14]", "result": -0.259},
      {"measurement": "glycan array binding signal (z-score)", "setting": "[15]", "result": -0.244},
      {"measurement": "glycan array binding signal (z-score)", "setting": "[16]", "result": -0.26},
      {"measurement": "glycan array binding signal (z-score)", "setting": "[17]", "result": -0.229},
      {"measurement": "glycan array binding signal (z-score)", "setting": "[18]", "result": -0.249},
      {"measurement": "glycan array binding signal (z-score)", "setting": "[19]", "result": -0.246},
      {"measurement": "glycan array binding signal (z-score)", "setting": "[20]", "result": -0.256},
      {"measurement": "glycan array binding signal (z-score)", "setting": "[21]", "result": -0.238},
      {"measurement": "glycan array binding signal (z-score)", "setting": "[22]", "result": -0.186},
      {"measurement": "glycan array binding signal (z-score)", "setting": "Fuc(a1-2)Gal(b1-4)Glc", "result": -0.255},
      {"measurement": "glycan array binding signal (z-score)", "setting": "Fuc(a1-2)Gal(b1-4)Glc6S", "result": -0.257},
      {"measurement": "glycan array binding signal (z-score)", "setting": "Fuc(a1-2)Gal(b1-4)GlcNAc", "result": -0.267},
      {"measurement": "glycan array binding signal (z-score)", "setting": "[23]", "result": -0.244},
      {"measurement": "glycan array binding signal (z-score)", "setting": "[24]", "result": -0.244}
    ]}
  ]
}
